# Source: paper PMC4336329 (PLoS ONE, 2015)
# Hit rate of the full screen: of about 310,000 compounds, about 2,200 (0.71%) showed an effect of 50% or more. Effects have a minus sign here. Some of the results follow.
# Target: human ether-à-go-go-related gene (hERG) potassium channel (human, UniProt Q12809)
# Experiment: primary screen, population patch clamp on CHO cells stably expressing hERG
# Chain of human ether-à-go-go-related gene (hERG) potassium channel (Q12809 whole entry, looked up): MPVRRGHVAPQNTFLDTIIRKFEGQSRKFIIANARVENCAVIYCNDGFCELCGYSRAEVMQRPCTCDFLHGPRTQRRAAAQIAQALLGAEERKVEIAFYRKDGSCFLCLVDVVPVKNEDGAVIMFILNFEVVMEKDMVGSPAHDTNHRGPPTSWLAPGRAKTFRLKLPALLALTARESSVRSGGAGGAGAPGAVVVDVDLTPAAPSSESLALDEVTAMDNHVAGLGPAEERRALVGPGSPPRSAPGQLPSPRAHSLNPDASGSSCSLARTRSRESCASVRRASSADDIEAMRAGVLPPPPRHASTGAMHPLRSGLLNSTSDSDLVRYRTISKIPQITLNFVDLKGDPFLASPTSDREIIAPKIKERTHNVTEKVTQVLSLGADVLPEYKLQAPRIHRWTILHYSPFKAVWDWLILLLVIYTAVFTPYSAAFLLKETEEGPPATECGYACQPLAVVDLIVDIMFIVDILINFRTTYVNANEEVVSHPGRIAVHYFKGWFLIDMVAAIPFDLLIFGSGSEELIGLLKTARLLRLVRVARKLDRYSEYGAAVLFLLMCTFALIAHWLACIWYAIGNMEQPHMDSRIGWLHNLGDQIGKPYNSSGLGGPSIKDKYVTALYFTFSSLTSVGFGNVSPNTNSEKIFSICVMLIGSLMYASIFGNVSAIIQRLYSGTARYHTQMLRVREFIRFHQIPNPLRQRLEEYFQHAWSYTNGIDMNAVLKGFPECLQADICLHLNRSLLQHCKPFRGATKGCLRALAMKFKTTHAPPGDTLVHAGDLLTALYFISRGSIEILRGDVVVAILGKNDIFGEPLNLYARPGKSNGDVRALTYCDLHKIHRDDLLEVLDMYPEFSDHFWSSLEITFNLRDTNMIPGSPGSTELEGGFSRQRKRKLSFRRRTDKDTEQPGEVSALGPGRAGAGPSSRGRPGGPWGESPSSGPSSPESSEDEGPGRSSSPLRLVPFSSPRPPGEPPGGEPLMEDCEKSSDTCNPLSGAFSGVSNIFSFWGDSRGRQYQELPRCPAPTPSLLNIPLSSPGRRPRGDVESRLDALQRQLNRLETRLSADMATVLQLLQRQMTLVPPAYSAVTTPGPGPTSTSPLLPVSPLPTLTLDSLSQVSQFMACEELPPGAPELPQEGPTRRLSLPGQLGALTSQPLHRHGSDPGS
row,SMILES,"hERG current change (%, negative = inhibition) at 1uM [%]"
1,CS(=O)(=O)N(Cc1ccc(Cl)cc1)c1ccc(C(=O)NCCC2=CCCCC2)cc1,-3.85
2,COc1ccccc1NS(=O)(=O)N(C)C,11.9
3,CCNC(=S)Nc1cccc(F)c1C,12
4,CCN(c1ccc(Cl)cc1)S(=O)(=O)c1nnc(NC(=O)C(C)C)s1,9.39
5,Cc1cc(Cl)ccc1C(=O)C1CCCN(C(=O)c2cccc(N3CCCC3=O)c2)C1 (stereo not drawn),3.1
6,Cc1ccc(S(C)(=O)=NC(=O)NC(=O)c2c(Cl)cccc2Cl)cc1 (stereo not drawn),7.69
7,COC(=O)C1=C(C)NC(C)=C(C(=O)OC)C1c1ccc(NC(C)=O)cc1,18.5
8,CC(=O)Nc1nc(-c2ccc3c(c2)CCO3)cs1,9.73
9,CCN(CC)S(=O)(=O)c1ccc2c(c1)NC(=O)C1CCCN21 (stereo not drawn),9.37
10,O=C(Cc1ccc(Br)cc1)Nc1ncc([N+](=O)[O-])s1,-1.37
11,O=C(NC1CCN(Cc2ccccc2)CC1)C1CCN(S(=O)(=O)c2cccc3nsnc23)CC1,8.24
12,Cc1c(NS(=O)(=O)c2ccc([N+](=O)[O-])cc2)c(=O)n(-c2ccccc2)n1C,18.6
13,Cc1cc2cc3c(cc2nc1SCC(=O)Nc1c(C)cccc1C)CCC3,12.9
14,Cc1ccc(SCC(=O)c2sc(-c3ccccc3)nc2C)cc1,6.38
15,CCOc1ccccc1N1CCN(C(=O)CNC(=O)c2sc3ccccc3c2Cl)CC1,15
16,O=C(c1ccc2ncsc2c1)N1CCN(c2ccccc2Cl)CC1,2.08
17,CCOc1ccc(C2C=C(c3ccc(C)cc3)Nc3nnnn32)cc1 (stereo not drawn),-4.59
18,O=C(CN1C(=O)NC2(CCc3ccccc32)C1=O)NCc1ccccc1Cl (stereo not drawn),41.3
19,CC(C)(C)c1ccc(OC(=O)N2CCCCC2)cc1,13

row,SMILES,"hERG current change (%, negative = inhibition) at 1uM [%]"
1,Cc1ccc2oc(=O)n(Cc3ccc(F)cc3)c2c1,12.3
2,Cn1nc(/C=C/c2ccccc2)ccc1=O,10.5
3,O=C(Oc1ccc(-c2nnco2)cc1)C1CCN(C(=O)c2ccc(F)cc2)CC1,11.4
4,Cc1ccc(C(=O)Nc2ccccc2C(=O)O)cc1S(=O)(=O)Nc1ccc(Br)cc1,15.1
5,O=C(N/N=C/c1ccccc1Br)C1CC1,30.8
6,Cc1cc(F)ccc1S(=O)(=O)Nc1ncnc2sccc12,10.9
7,Cc1cc(C(=O)Nc2ccc3c(c2)OCCO3)c(C)o1,9.92
8,Cc1ccc(N2CC(NS(=O)(=O)c3cccnc3)CC2=O)cc1 (stereo not drawn),3.82
9,CCCCCN(C(=O)CCC(=O)OCCOc1cccc(Cl)c1)c1c(N)n(CCCC)c(=O)[nH]c1=O,10.9
10,N#Cc1ccc(NC(=O)COC(=O)CCc2nc3ccccc3c(=O)[nH]2)cc1,10.4
11,O=C(c1ccc([N+](=O)[O-])o1)N1CCc2ccccc21,16.4
12,Cc1nc(CC(=O)NNS(=O)(=O)c2ccc3ccccc3c2)cs1,10.8
13,CC(C)(C)C(=O)Nc1ccccc1N1CCN(C(=O)c2ccc(Cl)cc2)CC1,-2.76
14,CCOc1ccc2nc(NC(=O)CSc3nnc(-c4ccncc4)n3CC3CCCO3)sc2c1 (stereo not drawn),6.31
15,Cc1nc2sccn2c(=O)c1S(=O)(=O)NC(C)c1ccccc1 (stereo not drawn),14
16,COc1ccccc1N1CCN(Cc2nc3ccccc3[nH]2)CC1,18.3
17,N#Cc1ccc(COC(=O)c2ccc(N3CCCC3)c([N+](=O)[O-])c2)cc1,2
18,Fc1ccccc1Nc1nc(N2CCOCC2)nc(N2CCOCC2)n1,16.8
19,C[C@H](NC(=O)OCc1ccccc1)c1nnc([C@H](Cc2ccccc2)NC(=O)OC(C)(C)C)o1,1.94

row,SMILES,"hERG current change (%, negative = inhibition) at 1uM [%]"
1,O=C(CCC(=O)c1cccs1)NNC(=O)c1cccc(Cl)c1,-3.06
2,CC(C)NC(=O)Cn1cc(S(=O)(=O)N2CCCC2)c(S(=O)(=O)N2CCCC2)c1,11.8
3,O=C(CN1CCC(NC(=O)Nc2ccccc2)CC1)Nc1cccc([N+](=O)[O-])c1,-0.226
4,CCCCC(=O)Nc1nc(C)c(C(C)=O)s1,13.6
5,COc1ccc(N/N=C(/C)c2cnnc(-c3ccccc3)n2)cc1,7.77
6,O=c1[nH]c(/C(Cl)=C/c2cc(Cl)ccc2O)nc2cc(Cl)ccc12,8.93
7,CCC1Oc2ccc(C)cc2N(CC(=O)N(Cc2cccnc2)Cc2ccc(C)o2)C1=O (stereo not drawn),-5.91
8,O=C(CSCc1cnn(-c2ccccc2)c1-n1cccc1)NCC1CCCO1 (stereo not drawn),10.9
9,Cc1cc(NC(=O)CSc2nc3ccsc3c(=O)n2NC(=O)c2ccccc2)no1,4.46
10,CC(=O)N1CCN(C(=O)CCNS(=O)(=O)c2ccccc2)CC1,9.56
11,Cc1ccc(C(=O)N(CC(=O)NC2CCCCC2)c2ccccc2C)s1,1.68
12,O=P(Nc1cccc(Cl)c1)(Oc1ccccc1)Oc1ccccc1,3.58
13,COc1ccc(Nc2nc3c(C)cccc3cc2C#N)cc1,9.13
14,CC(C)(C)Nc1c(N)c(=O)oc2ccccc12,3.48
15,Cc1cccc(OCCC(=O)Nc2ccc(S(=O)(=O)N3CCCC3)cc2)c1,14
16,CCOC(=O)c1ccc(NC(=O)N(CC)CC)cc1,5.73
17,CC(=Nc1ccc(O)cc1)c1sc2ccccc2c1O,6.62
18,O=C(N/N=C/c1ccccc1)c1cc[n+]([O-])cc1,21.2
19,COc1ccc(CNC(=O)c2ccccc2NS(C)(=O)=O)cc1,8.73
